In all, about 410,000 compounds went through this assay and about 5,000 (1.2%) were called active. Inconclusive results, whose numbers are uncertain, are shown with a selection of clear calls. Calls follow the shape of the dose curve; as a rule, active = well fitted inhibition curve with a large enough effect; inconclusive = small, poorly fitted or top-dose-only effect; inactive = no such curve, though single readings can be large or run the other way. A potency beside an inconclusive call is a rough fit, not a confirmed value.
Assay: qHTS for Inhibitors of TGF-b; also: nearly all actives have a fitted effect of over 65% in size
Conditions: HepG2 CAGA-GFP TGF-b/SMAD3 reporter, GFP fluorescence, 18 h, TGF-beta stimulated, 500 pg/mL final; series mostly up to 46.1 µM; activity, negative = inhibition: at the top concentration
In short: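 HEPG2 CAGA-GFP reporter cells (1000/well, DMEM with 1% FBS) received compounds, then recombinant TGF-beta at 500 pg/mL final for 18 hours at 37 degrees C. Per-cell GFP summed per well was normalised to unstimulated and stimulated DMSO controls before curve fitting.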
% is scaled to controls: 0 for no effect and ±100 for the full control effect; potency is read from the fitted curve at half-maximal effect; tags tell the direction and shape of the fitted curve.

Row | Compound | activity, negative = inhibition | Potency
1 | CN1C(=O)/C(=C\c2ccc(N3CCCCCC3)cc2)C(=O)NC1=S | inactive: -11.4% | 
2 | O=C1NCN(c2ccccc2)C12CCN(C(CCc1ccccc1)c1nnnn1-c1ccc3c(c1)OCCO3)CC2 (stereo not drawn) |  | active: 12.6 µM
3 | C[C@@H]1CN([C@H](C)CO)C(=O)c2c(c3ccccc3n2C)-c2ccccc2CO[C@@H]1CN(C)Cc1ccc(O)cc1 |  | inconclusive: 35.5 µM [inhibitor, single point]
4 | N#CC(C#N)=Cc1cccnc1 | inactive: 2.85% | 
5 | CCCCC(=O)N/N=C/c1c(O)n(-c2ccccc2)c(=O)[nH]c1=O |  | inconclusive: 6.31 µM [inhibitor, single point]
6 | O=C(c1ccc(Cl)cc1)C1CCCN(Cc2cccc3cccnc23)C1 (stereo not drawn) |  | inconclusive: 35.5 µM [inhibitor, single point]
7 | Cc1ccccc1-n1nc(C)c2c1NC(=O)CSC2c1ccc(Cl)cc1 (stereo not drawn) |  | inconclusive: 35.5 µM [inhibitor, single point]
8 | O=[As](O)(O)c1ccc(N=Nc2ccc(O)cc2)cc1 | inactive: 0.508% | 
9 | Cc1[nH]c2ccc(OC(=O)N3CCOCC3)cc2c1C(=O)OC(C)C |  | inconclusive: 3.16 µM [inhibitor, partial curve, poor fit]
10 | O=C(Nc1ccccc1)C1CC(=O)N(C2CCCCC2)C1 (stereo not drawn) |  | inconclusive: 14.1 µM [inhibitor, single point]
11 | CCC[N+]12CCC(CC1)C(=C(c1ccccc1)c1ccccc1)C2 | inactive: 5.71% | 
12 | C=C(C=O)CC1CC(O)[C@]2(C)OC3CC4OC5C[C@]6(C)O[C@]7(C)CCC8OC9C[C@]%10(C)OC%11C(C)=CC(=O)OC%11CC%10OC9C[C@@H](C)C8OC7CC6O[C@]5(C)CC5OC5C4OC3CC2O1 (stereo partly drawn) |  | inconclusive: 0.398 µM [inhibitor, full curve]
13 | O=C(c1ccc(F)cc1)N1CCC(N2CCCCCC2)CC1 |  | inconclusive: 0.355 µM [inhibitor, full curve, poor fit]
14 | COc1ccc(C(O)P(=O)(OC(C)C)OC(C)C)cc1 (stereo not drawn) |  | inconclusive: 6.31 µM [inhibitor, single point]
15 | Cc1ccc(OCC(=O)NCCN2CCN(C(=O)COc3ccc(C)cc3)CC2)cc1 |  | inconclusive: 35.5 µM [inhibitor, single point]
16 | O=C(c1cccc(Cl)c1)C1CCCN(Cc2cccc3cnccc23)C1 (stereo not drawn) |  | inconclusive: 8.91 µM [inhibitor, partial curve, poor fit]
17 | COc1cc(C)c(CNCCc2c[nH]c3ccccc23)cc1C |  | inconclusive: 28.2 µM [inhibitor, single point]
18 | Cc1ccccc1-n1c(/C=C/c2c(C)[nH]c3ccccc23)nc2ccccc2c1=O |  | inconclusive: 20 µM [inhibitor, partial curve, poor fit]

From PubChem BioAssay AID588855 (National Center for Advancing Translational Sciences (NCATS), 2011)
